Each structure is given as a SMILES string. In brackets after ≈: the same amount, converted by molar mass.

The text below walks through data of patent US9040542B2, “Solid forms of gyrase inhibitor (R)-1-ethyl-3-[6-fluoro-5-[2-(1-hydroxy-1-methyl-ethyl)pryimidin-5-yl]-7-(tetrahydrofuran-2-yl)-1H-benzimidazol-2-yl]urea” (priority 2011, dated 2015).

For the assay, the system named is Haemophilus influenzae (Rd1 KW20) ATCC 51907. The experiment in a line: MIC, Protocol 2 microdilution broth, Gram negatives. Format: cell-based. Background: Dilution methods test growth across graded concentrations, often in twofold steps.

In turn, `CCNC(=O)Nc1nc2cc(-c3cnc(C(C)(C)O)nc3)c(F)c([C@H]3CCCO3)c2[nH]1` [Compound 24, 1-ethyl-3-[6-fluoro-5-[2-(1-hydroxy-1-methyl-ethyl)pyrimidin-5-yl]-7-[(2R)-tetrahydrofuran-2-yl]-1H-benzimidazol-2-yl]urea] displayed an MIC of 1.3 µg/mL (≈ 3.03 µM).
